Consider 58 compounds from PMC4336329 (PLoS ONE, 2015).

The whole screen tested about 310,000 compounds, of which about 14,000 (4.5%) showed an effect of 50% or more. The effect is printed as a negative number. This is one part of the list.
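Further: peak tail current of the secondary pulse compared with the same well before compound.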

human ether-à-go-go-related gene (hERG) potassium channel, sequence (Q12809 whole entry, looked up): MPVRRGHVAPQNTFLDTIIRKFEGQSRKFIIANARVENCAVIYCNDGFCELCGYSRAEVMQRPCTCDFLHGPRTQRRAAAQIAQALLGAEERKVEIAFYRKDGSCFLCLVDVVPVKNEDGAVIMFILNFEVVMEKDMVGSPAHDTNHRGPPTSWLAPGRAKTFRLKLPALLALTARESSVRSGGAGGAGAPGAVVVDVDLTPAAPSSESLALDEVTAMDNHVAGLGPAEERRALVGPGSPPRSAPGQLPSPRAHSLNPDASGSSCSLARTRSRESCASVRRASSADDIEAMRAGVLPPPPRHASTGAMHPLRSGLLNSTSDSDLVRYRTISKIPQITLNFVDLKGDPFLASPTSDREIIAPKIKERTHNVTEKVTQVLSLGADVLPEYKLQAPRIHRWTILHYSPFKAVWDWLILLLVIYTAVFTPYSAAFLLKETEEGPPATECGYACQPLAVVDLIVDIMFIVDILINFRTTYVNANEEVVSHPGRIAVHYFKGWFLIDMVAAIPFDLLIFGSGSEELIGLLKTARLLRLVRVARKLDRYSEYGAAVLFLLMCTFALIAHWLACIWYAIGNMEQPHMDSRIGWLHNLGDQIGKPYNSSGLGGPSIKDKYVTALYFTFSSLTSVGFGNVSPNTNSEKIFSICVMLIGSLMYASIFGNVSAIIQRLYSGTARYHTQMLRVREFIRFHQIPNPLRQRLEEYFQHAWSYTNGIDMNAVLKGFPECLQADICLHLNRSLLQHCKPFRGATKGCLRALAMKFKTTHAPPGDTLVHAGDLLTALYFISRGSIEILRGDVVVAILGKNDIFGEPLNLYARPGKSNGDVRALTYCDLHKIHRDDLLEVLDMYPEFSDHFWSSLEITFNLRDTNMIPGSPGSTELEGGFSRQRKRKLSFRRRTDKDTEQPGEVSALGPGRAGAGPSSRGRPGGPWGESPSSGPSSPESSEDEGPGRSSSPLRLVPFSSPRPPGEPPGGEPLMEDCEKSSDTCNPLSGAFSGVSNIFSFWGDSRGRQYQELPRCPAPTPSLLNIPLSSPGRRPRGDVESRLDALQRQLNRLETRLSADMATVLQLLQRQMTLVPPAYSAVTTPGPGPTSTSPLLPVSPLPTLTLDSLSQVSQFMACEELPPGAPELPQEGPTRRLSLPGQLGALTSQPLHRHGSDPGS

The test concerns the target human ether-à-go-go-related gene (hERG) potassium channel (human, UniProt Q12809). Put plainly: primary screen, population patch clamp on CHO cells stably expressing hERG.
Regarding `CNCCCOc1ccc(Cl)cc1C(C)(C)C.O=C(O)C(=O)O`, the “hERG current change (%, negative = inhibition) at 10uM” value is given as -20.6%.
The value for `Cc1ccc(S(=O)(=O)NCCNC(=O)c2ccc(C)nc2)cc1` was -72%; that for `COc1ccc(/C=C(/NC(=O)/C=C/c2ccccc2)C(=O)NCCCCCC(=O)O)cc1` was 13.1%.
The value for `COCCNC(=O)C(OC(=O)c1cc2oc(C)cc2n1C)C(C)C` (stereo not shown) was -2%; that for `Cc1ccc(Cn2ccc(=O)c(OCc3ccccc3)c2C)cc1` was -5.93%.
As for `CC(NC(=O)C(=O)N1CCOCC1)C(c1cccs1)N1CCN(c2ccccc2)CC1` (stereo not shown), the figure is 8.31%; as for `CNc1nc(N)c([N+](=O)[O-])c(NC2CCCCC2)n1`, 12%.
As for `CC12CC3CC(C)(C1)CC(C(=O)N1CCCC1)(C3)C2`, the “hERG current change (%, negative = inhibition) at 10uM” value was -8.94%.
As for `CCOc1ccc(OCCC(=O)OCC(=O)NC2CC2)cc1`, the figure is 2.33%.
As for `CCOC(=O)c1cnn(-c2ccccc2)c1-c1ccncc1`, the figure is 12.3%; as for `CCc1ccc(C(=O)COC(=O)c2cccc(N3C(=O)c4c(C)nc5ccccc5c4C3=O)c2)cc1`, -27.9%.
On to `COc1ccccc1/C=N/NC(=O)CNC(=O)c1ccc(S(=O)(=O)N2CCCC2)cc1`, for which the “hERG current change (%, negative = inhibition) at 10uM” value amounted to 4.9%.
`Cc1cc(N2CCc3ccccc32)n2ncnc2n1`: the “hERG current change (%, negative = inhibition) at 10uM” value is listed as -0.558%.
As for `CC1=CS/C(=C(/C#N)C(=O)N2CCCCC2)N1c1ccccc1`, the figure is 8.52%; as for `CCC1=[N+](C)c2cccc3cccc(c23)N1C.[I-]`, 18.6%.
As for `COc1ccc(CN(Cc2ccc(C(=O)O)cc2)C(=S)Nc2ccccc2C)cc1OC`, the figure is 24.9%.
As for `Cc1cc2ccccc2cc(C)c1=O`, the figure is 7.96%; as for `CC(C)OCCCN(C)C1CCN(S(=O)(=O)c2csc(C(N)=O)c2)CC1`, 13.1%; as for `CC(OC(=O)c1ccccc1Nc1ccc(SC(F)F)cc1)C(N)=O` (stereo not shown), -34%.
As for `CCOC(=O)c1c(/N=C/N(C)C)sc(C=O)c1-c1ccccc1`, the “hERG current change (%, negative = inhibition) at 10uM” value came out at 5.75%.
As for `CCCS(=O)(=O)Nc1c(C(=O)O)[nH]c2ccc(OC)cc12`, the figure is 1.44%; as for `O=C(Nc1ccc(Cl)cc1)C1CC2CCCC(C1)C2=O` (stereo not shown), -15.6%.
`Cc1cccc(C)c1NC(=S)NN(Cc1ccccc1)c1ccccc1`: the “hERG current change (%, negative = inhibition) at 10uM” value is 11.6%.
As for `CC1CCCCN1C(=O)CSc1nc(C2CC2)nc2c1cnn2-c1ccccc1` (stereo not shown), the figure is 16.9%.
Regarding `CCc1ccc(OCC(=O)Nc2ccc3[nH]ncc3c2)cc1`, the “hERG current change (%, negative = inhibition) at 10uM” value is recorded as -7.38%.
The value for `CC1(C)CC(=O)N(CC(=O)N2CCN(c3ncccn3)CC2)c2ccccc2S1(=O)=O` was -5.14%; that for `CSc1nnc(C)c(=O)n1COC(=O)COc1ccccc1C` was -2.1%.
As for `C=COCCn1c(C)c(C(C)=O)c2cc(O)ccc21`, the figure is 7.27%.
In the case of `C/C(=N\Nc1ccc2nncn2n1)c1ccc(Br)s1`, the “hERG current change (%, negative = inhibition) at 10uM” value was 6.83%.
The value for `Cc1ccc(NNC(=O)c2c(F)cccc2Cl)cc1C` was 4.71%; that for `C[C@H](NC(=O)OC(C)(C)C)C(=O)N/N=C/c1cccc2nccnc12` was 8.37%.
As for `Oc1ccc(N=Nc2ccc3c(c2)OCO3)c2ccccc12`, the figure is -6.41%; as for `CC(=O)c1ccc2noc(-c3ccc(F)cc3)c2c1`, 2.15%.
The value for `CCOc1ccc(NS(=O)(=O)c2ccc(-c3coc(C)n3)cc2)cc1` was 24.3%; that for `Cc1ccc(Oc2ccc(OCC(=O)NC(C)C(=O)O)cc2)cc1` (stereo not shown) was -25.1%.
In the case of `NS(=O)(=O)c1ccc(NC(CNS(=O)(=O)c2ccccc2)c2ccccc2)cc1` (stereo not shown), the “hERG current change (%, negative = inhibition) at 10uM” value is given as 36.8%.
The value for `Cc1nn(Cc2cccc(C(=O)NC34CC5CC(CC(C5)C3)C4)c2)c(C)c1Br` was 5.43%; that for `CN(c1ccc(C(=O)N2CCOCC2)cc1)S(=O)(=O)c1cccs1` was 29%; that for `CC1(C)Cc2c(sc(NC(=O)C(=O)N3CCCCC3)c2C(N)=O)CO1` was 18.3%.
As for `O=C(CN1C(=O)NC2(CCCCCC2)C1=O)Nc1ccc2c(c1)CCC2`, the figure is -5.72%; as for `O=[N+]([O-])c1cccc(NC2=NCCC2)c1`, 2.79%.
Regarding `Cc1cc(S(=O)(=O)NCCc2ccccc2)c(C)s1`, the “hERG current change (%, negative = inhibition) at 10uM” value is -17.4%.
The value for `NC(=O)C(C(=O)/C=C/c1ccc(Cl)cc1)=C1SCCS1` was 0.52%.
As for `O=c1[nH]c(=O)c2ncc(-c3ccc(Cl)cc3)nc2[nH]1`, the figure is 6.87%; as for `CCC(C)Oc1cccc(C(=O)Nc2ccccc2N2CCOCC2)c1` (stereo not shown), -4.01%; as for `Cc1ccc(C(=O)N2CC(C)OC(C)C2)cc1[N+](=O)[O-]` (stereo not shown), 7.89%.
Consider `CCCN(CCC)S(=O)(=O)c1cc2c3c(c1)CCN3C(=O)CC2`, for which the “hERG current change (%, negative = inhibition) at 10uM” value is reported as -26.6%.
As for `COc1ccc(CCNC(=S)Nc2cccc(C)c2)cc1`, the figure is -8.64%; as for `O=C(COC(=O)c1ccc(Cl)s1)c1cc2ccccc2o1`, -18.4%.
The value for `Cc1ccc2oc(=O)c(/C=C(\O)c3ccccc3)nc2c1` was -5.21%; that for `CC(CCN1CCC(n2nccc2NC(=O)c2ccccc2Cl)CC1)c1ccccc1` (stereo not shown) was -82.7%; that for `COc1cc2[nH]c(C(=O)N3CCc4ccccc4C3)cc2c(OC)c1OC` was -21.4%.
The value for `Nc1nonc1N/N=C/c1c(O)ccc2ccccc12` was 21.3%; that for `O=S(=O)(NCc1ccc2c(c1)OCO2)c1ccc2c(c1)oc1ccccc12` was 11.2%.
As to `COc1ccc(-n2c(C)nnc2SCC(=O)N2CCOCC2)cc1`, the “hERG current change (%, negative = inhibition) at 10uM” value came to 13.7%.
The value for `O=C(OCC(=O)N1CCN(C(=O)c2ccco2)CC1)c1cc(-c2ccccc2)nc2ccccc12` was -60.3%.
As for `O=C(NC1CCCCC1)N1CCCC(c2nc(-c3cccs3)no2)C1` (stereo not shown), the figure is -10.5%; as for `COc1ccc(-n2cc(CN[C@H]3CCCCNC3=O)c(-c3cccc(F)c3)n2)cc1`, -64.1%.
